# Measured values taken from the supplement of paper PMC8728848.
# The other results are listed elsewhere or left out.
# Assays:
# Experiment in all cases: glycan array binding signal (z-score within array); higher = stronger binding
# Conditions in all cases: glycan notation: IUPAC condensed, linker removed
# [1] = molecular target: Fuc(a1-2)[GalNAc(a1-3)]Gal(b1-3)GlcNAc(b1-6)GalNAc
# Summary of the method: (§1)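 Glycan array data were curated from 3228 arrays in the Consortium for Functional Glycomics database and kept only where the protein sequence was available. Glycan names were converted to IUPAC-condensed notation, and columns mapping to the same glycan were averaged. The binding signal is a within-array Z-score, averaged across arrays of the same protein sequence at different concentrations or buffers and across linkers. Negative Z-scores can be read as non-binding.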
# [2] = molecular target: Fuc(a1-2)[GalNAc(a1-3)]Gal(b1-4)Glc
# Summary of the method: as §1
# [3] = molecular target: Fuc(a1-2)[GalNAc(a1-3)]Gal(b1-4)GlcNAc
# Summary of the method: as §1
# [4] = molecular target: Fuc(a1-2)[GalNAc(a1-3)]Gal(b1-4)GlcNAc(b1-2)Man
# Summary of the method: as §1
# [5] = molecular target: Fuc(a1-2)[GalNAc(a1-3)]Gal(b1-4)GlcNAc(b1-2)Man(a1-3)[Fuc(a1-2)[GalNAc(a1-3)]Gal(b1-4)GlcNAc(b1-2)Man(a1-6)]Man(b1-4)GlcNAc(b1-4)GlcNAc
# Summary of the method: as §1
# [6] = molecular target: Fuc(a1-2)[GalNAc(a1-3)]Gal(b1-4)GlcNAc(b1-2)Man(a1-3)[Fuc(a1-2)[GalNAc(a1-3)]Gal(b1-4)GlcNAc(b1-2)Man(a1-6)]Man(b1-4)GlcNAc(b1-4)[Fuc(a1-6)]GlcNAc
# Summary of the method: as §1
# [7] = molecular target: Fuc(a1-2)[GalNAc(a1-3)]Gal(b1-4)GlcNAc(b1-3)Gal(b1-4)GlcNAc
# Summary of the method: as §1
# [8] = molecular target: Fuc(a1-2)[GalNAc(a1-3)]Gal(b1-4)GlcNAc(b1-3)Gal(b1-4)GlcNAc(b1-3)Gal(b1-4)GlcNAc
# Summary of the method: as §1
# [9] = molecular target: Fuc(a1-2)[GalNAc(a1-3)]Gal(b1-4)GlcNAc(b1-3)GalNAc
# Summary of the method: as §1
# [10] = molecular target: Fuc(a1-2)[GalNAc(a1-3)]Gal(b1-4)GlcNAc(b1-3)[Fuc(a1-2)[GalNAc(a1-3)]Gal(b1-4)GlcNAc(b1-6)]GalNAc
# Summary of the method: as §1
# [11] = molecular target: Fuc(a1-2)[GalNAc(a1-3)]Gal(b1-4)GlcNAc(b1-6)GalNAc
# Summary of the method: as §1
# [12] = molecular target: Fuc(a1-2)[GalNAc(a1-3)]Gal(b1-4)[Fuc(a1-3)]GlcNAc
# Summary of the method: as §1
# [13] = molecular target: Fuc(a1-2)[GalNAc(a1-3)]Gal(b1-4)[Fuc(a1-3)]GlcNAc(b1-3)GalNAc
# Summary of the method: as §1
# [14] = molecular target: Fuc(a1-2)[GalNAc(a1-4)]Gal(b1-4)GlcNAc
# Summary of the method: as §1
# [15] = molecular target: Fuc(a1-2)[GalNAc(b1-3)]Gal
# Summary of the method: as §1
# [16] = molecular target: Fuc(a1-3)GlcNAc
# Summary of the method: as §1
# [17] = molecular target: Fuc(a1-3)[Gal(b1-4)]Glc6S
# Summary of the method: as §1
# [18] = molecular target: Fuc(a1-3)[Gal(b1-4)]GlcNAc
# Summary of the method: as §1
# [19] = molecular target: Fuc(a1-3)[Gal(b1-4)]GlcNAc(b1-2)Man
# Summary of the method: as §1
# [20] = molecular target: Fuc(a1-3)[Gal(b1-4)]GlcNAc(b1-2)Man(a1-3)[Fuc(a1-3)[Gal(b1-4)]GlcNAc(b1-2)Man(a1-6)]Man(b1-4)GlcNAc(b1-4)GlcNAc
# Summary of the method: as §1
# [21] = molecular target: Fuc(a1-3)[Gal(b1-4)]GlcNAc(b1-2)Man(a1-3)[Fuc(a1-3)[Gal(b1-4)]GlcNAc(b1-2)Man(a1-6)]Man(b1-4)GlcNAc(b1-4)[Fuc(a1-6)]GlcNAc
# Summary of the method: as §1
# [22] = molecular target: Fuc(a1-3)[Gal(b1-4)]GlcNAc(b1-3)Gal(b1-3)[Fuc(a1-4)]GlcNAc
# Summary of the method: as §1
# [23] = molecular target: Fuc(a1-3)[Gal(b1-4)]GlcNAc(b1-3)GalNAc
# Summary of the method: as §1
# [24] = molecular target: Fuc(a1-3)[Gal(b1-4)]GlcNAc(b1-4)Gal(b1-4)[Fuc(a1-3)]GlcNAc
# Summary of the method: as §1
# [25] = molecular target: Fuc(a1-3)[Gal(b1-4)]GlcNAc(b1-4)Gal(b1-4)[Fuc(a1-3)]GlcNAc(b1-4)Gal(b1-4)[Fuc(a1-3)]GlcNAc
# Summary of the method: as §1
# [26] = molecular target: Fuc(a1-3)[Gal(b1-4)]GlcNAc(b1-6)GalNAc
# Summary of the method: as §1
# [27] = molecular target: Fuc(a1-3)[Gal(b1-4)]GlcNAc(b1-6)[Gal(b1-3)GlcNAc(b1-3)]Gal(b1-4)Glc
# Summary of the method: as §1
# [28] = molecular target: Fuc(a1-3)[Gal(b1-4)]GlcNAc6S
# Summary of the method: as §1
# [29] = molecular target: Fuc(a1-3)[Gal3S(b1-4)]Glc
# Summary of the method: as §1
# [30] = molecular target: Fuc(a1-3)[Gal3S(b1-4)]GlcNAc
# Summary of the method: as §1
# [31] = molecular target: Fuc(a1-3)[Gal3S(b1-4)]GlcNAc6S
# Summary of the method: as §1
# [32] = molecular target: Fuc(a1-3)[GalNAc(b1-4)]GlcNAc
# Summary of the method: as §1
# [33] = molecular target: Fuc(a1-3)[GalNAc(b1-4)]GlcNAc6S
# Summary of the method: as §1
# [34] = molecular target: Fuc(a1-4)GlcNAc
# Summary of the method: as §1
# [35] = molecular target: Fuc(b1-3)GlcNAc
# Summary of the method: as §1
# [36] = molecular target: Gal(a1-2)Gal
# Summary of the method: as §1
# [37] = molecular target: Gal(a1-3)Gal
# Summary of the method: as §1
binder,measurement,setting,value
Threefoil (Haloarcula marismortui) (protein) GSSHHHHHHHHHHSSGLVPRGSHMGDGYYKLVARHSGKALDVENASTSDGANVIQYSYSGGDNQQWRLVDLGDGYYKLVARHSGKALDVENASTSDGANVIQYSYSGGDNQQWRLVDLGDGYYKLVARHSGKALDVENASTSDGANVIQYSYSGGDNQQWRLVDL,glycan array binding signal (z-score),[1],-0.313
same,glycan array binding signal (z-score),[2],-0.222
same,glycan array binding signal (z-score),[3],-0.244
same,glycan array binding signal (z-score),[4],-0.136
same,glycan array binding signal (z-score),[5],-0.182
same,glycan array binding signal (z-score),[6],-0.315
same,glycan array binding signal (z-score),[7],-0.193
same,glycan array binding signal (z-score),[8],-0.252
same,glycan array binding signal (z-score),[9],-0.315
same,glycan array binding signal (z-score),[10],-0.062
same,glycan array binding signal (z-score),[11],-0.199
same,glycan array binding signal (z-score),[12],0.063
same,glycan array binding signal (z-score),[13],-0.193
same,glycan array binding signal (z-score),[14],-0.341
same,glycan array binding signal (z-score),[15],0.019
same,glycan array binding signal (z-score),[16],-0.234
same,glycan array binding signal (z-score),[17],-0.191
same,glycan array binding signal (z-score),[18],-0.151
same,glycan array binding signal (z-score),[19],-0.331
same,glycan array binding signal (z-score),[20],-0.27
same,glycan array binding signal (z-score),[21],-0.101
same,glycan array binding signal (z-score),[22],-0.059
same,glycan array binding signal (z-score),[23],-0.138
same,glycan array binding signal (z-score),[24],-0.037
same,glycan array binding signal (z-score),[25],-0.211
same,glycan array binding signal (z-score),[26],-0.234
same,glycan array binding signal (z-score),[27],0.266
same,glycan array binding signal (z-score),[28],-0.003
same,glycan array binding signal (z-score),[29],-0.243
same,glycan array binding signal (z-score),[30],-0.111
same,glycan array binding signal (z-score),[31],-0.217
same,glycan array binding signal (z-score),[32],0.175
same,glycan array binding signal (z-score),[33],-0.318
same,glycan array binding signal (z-score),[34],-0.313
same,glycan array binding signal (z-score),[35],-0.177
same,glycan array binding signal (z-score),[36],-0.036
same,glycan array binding signal (z-score),[37],-0.117
